Viability of KB3-1 and Nalm-6 cells after 48 h of drug alone (CellTiter-Glo), 11 doses over about 4.5 log units. % of DMSO wells, lower = more cell loss; AC50 from the fitted curve, lower = more potent. No active / inactive call. Nalm-6 was screened in two runs. AC50 is listed only for well-fitted inhibitory curves. KB3-1 is a HeLa-derived carcinoma line, Nalm-6 a B-cell precursor leukaemia line.
Experiments:
Nalm-6 = test: viability (% of DMSO control); higher = more viable cells
Procedure: (§1)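 Eleven-dose screen of the NCATS MIPE 3 library on cells without co-treatment; CellTiter-Glo after 48 h, as % of DMSO wells.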

KB3-1 = test: as above
Procedure: as §1

In the case of C[C@@H](N)C1CC[C@@H](CC1)C(=O)NC2=CC=NC=C2 (some centres not stated), the viability (Nalm-6; run: 1, 0.00078 µM) is reported as 96%, the viability (Nalm-6; run: 1, 0.00234 µM) is reported as 94.8% and the viability (Nalm-6; run: 1, 0.00702 µM) is reported as 103%. It also gave a viability (Nalm-6; run: 1, 0.0211 µM) of 107%, a viability (Nalm-6; run: 1, 0.0632 µM) of 110% and a viability (Nalm-6; run: 1, 0.19 µM) of 111%. The viability (Nalm-6; run: 1, 0.569 µM) was 110%, the viability (Nalm-6; run: 1, 1.71 µM) was 109% and the viability (Nalm-6; run: 1, 5.12 µM) was 108%. It also gave a viability (Nalm-6; run: 1, 15.4 µM) of 112%, a viability (Nalm-6; run: 1, 46.1 µM) of 89.7% and a viability (Nalm-6; run: 2, 0.00078 µM) of 101%. It also gave a viability (Nalm-6; run: 2, 0.00234 µM) of 111%, a viability (Nalm-6; run: 2, 0.00702 µM) of 107% and a viability (Nalm-6; run: 2, 0.0211 µM) of 112%. For the same compound, the viability (Nalm-6; run: 2, 0.0632 µM) was 108%, the viability (Nalm-6; run: 2, 0.19 µM) was 107% and the viability (Nalm-6; run: 2, 0.569 µM) was 111%. It also gave a viability (Nalm-6; run: 2, 1.71 µM) of 104%, a viability (Nalm-6; run: 2, 5.12 µM) of 107% and a viability (Nalm-6; run: 2, 15.4 µM) of 117%. The viability (Nalm-6; run: 2, 46.1 µM) was 117%, the viability (KB3-1; 0.00078 µM) was 91.7% and the viability (KB3-1; 0.00234 µM) was 93.4%. The viability (KB3-1; 0.00702 µM) was 92.1%, the viability (KB3-1; 0.0211 µM) was 92.4% and the viability (KB3-1; 0.0632 µM) was 95.4%. For the same compound, the viability (KB3-1; 0.19 µM) was 92.9%, the viability (KB3-1; 0.569 µM) was 91% and the viability (KB3-1; 1.71 µM) was 103%. The viability (KB3-1; 5.12 µM) was 99.3%, the viability (KB3-1; 15.4 µM) was 96.5% and the viability (KB3-1; 46.1 µM) was 90.6%.

Compound COC1=CC=C(C=C1)C2CC(=N/N2C3=CC=C(C=C3)[S+](N)([O-])=O)\C4=CC=CC=C4 (configuration not stated) [ML 141] has a viability (Nalm-6; run: 1, 0.00078 µM) of 67.7%, a viability (Nalm-6; run: 1, 0.00234 µM) of 87.7% and a viability (Nalm-6; run: 1, 0.00702 µM) of 89.3%. It also gave a viability (Nalm-6; run: 1, 0.0211 µM) of 96.8%, a viability (Nalm-6; run: 1, 0.0632 µM) of 91% and a viability (Nalm-6; run: 1, 0.19 µM) of 105%. It also gave a viability (Nalm-6; run: 1, 0.569 µM) of 101%, a viability (Nalm-6; run: 1, 1.71 µM) of 112% and a viability (Nalm-6; run: 1, 5.12 µM) of 106%. For the same compound, the viability (Nalm-6; run: 1, 15.4 µM) was 103%, the viability (Nalm-6; run: 1, 46.1 µM) was 4.85% and the viability (Nalm-6; run: 2, 0.00078 µM) was 101%. It also gave a viability (Nalm-6; run: 2, 0.00234 µM) of 101%, a viability (Nalm-6; run: 2, 0.00702 µM) of 106% and a viability (Nalm-6; run: 2, 0.0211 µM) of 101%. It also gave a viability (Nalm-6; run: 2, 0.0632 µM) of 96.1%, a viability (Nalm-6; run: 2, 0.19 µM) of 111% and a viability (Nalm-6; run: 2, 0.569 µM) of 94.9%. For the same compound, the viability (Nalm-6; run: 2, 1.71 µM) was 111%, the viability (Nalm-6; run: 2, 5.12 µM) was 111% and the viability (Nalm-6; run: 2, 15.4 µM) was 109%. It also gave a viability (Nalm-6; run: 2, 46.1 µM) of 2.5%, a viability (KB3-1; 0.00078 µM) of 95.5% and a viability (KB3-1; 0.00234 µM) of 96.9%. The viability (KB3-1; 0.00702 µM) was 101%, the viability (KB3-1; 0.0211 µM) was 96.4% and the viability (KB3-1; 0.0632 µM) was 98.5%. For the same compound, the viability (KB3-1; 0.19 µM) was 105%, the viability (KB3-1; 0.569 µM) was 98.3% and the viability (KB3-1; 1.71 µM) was 103%. The viability (KB3-1; 5.12 µM) was 98.7%, the viability (KB3-1; 15.4 µM) was 92.4% and the viability (KB3-1; 46.1 µM) was 37.9%.

With CNC(=O)c1ccc(N2C(=S)N(c3ccc(C#N)c(C(F)(F)F)c3)C(=O)C23CCC3)cc1F [RD-162] the viability (Nalm-6; run: 1, 0.00078 µM) was 23.3%, the viability (Nalm-6; run: 1, 0.00234 µM) was 71.9% and the viability (Nalm-6; run: 1, 0.00702 µM) was 64.7%. It also gave a viability (Nalm-6; run: 1, 0.0211 µM) of 74.5%, a viability (Nalm-6; run: 1, 0.0632 µM) of 82.9% and a viability (Nalm-6; run: 1, 0.19 µM) of 96.7%. For the same compound, the viability (Nalm-6; run: 1, 0.569 µM) was 111%, the viability (Nalm-6; run: 1, 1.71 µM) was 107% and the viability (Nalm-6; run: 1, 5.12 µM) was 105%. The viability (Nalm-6; run: 1, 15.4 µM) was 104%, the viability (Nalm-6; run: 1, 46.1 µM) was 71.7% and the viability (Nalm-6; run: 2, 0.00078 µM) was 108%. For the same compound, the viability (Nalm-6; run: 2, 0.00234 µM) was 112%, the viability (Nalm-6; run: 2, 0.00702 µM) was 111% and the viability (Nalm-6; run: 2, 0.0211 µM) was 115%. The viability (Nalm-6; run: 2, 0.0632 µM) was 113%, the viability (Nalm-6; run: 2, 0.19 µM) was 114% and the viability (Nalm-6; run: 2, 0.569 µM) was 111%. The viability (Nalm-6; run: 2, 1.71 µM) was 110%, the viability (Nalm-6; run: 2, 5.12 µM) was 115% and the viability (Nalm-6; run: 2, 15.4 µM) was 104%. For the same compound, the viability (Nalm-6; run: 2, 46.1 µM) was 78.8%, the viability (KB3-1; 0.00078 µM) was 101% and the viability (KB3-1; 0.00234 µM) was 98.9%. For the same compound, the viability (KB3-1; 0.00702 µM) was 96.7%, the viability (KB3-1; 0.0211 µM) was 104% and the viability (KB3-1; 0.0632 µM) was 105%. For the same compound, the viability (KB3-1; 0.19 µM) was 100%, the viability (KB3-1; 0.569 µM) was 101% and the viability (KB3-1; 1.71 µM) was 97.9%. It also gave a viability (KB3-1; 5.12 µM) of 97.2%, a viability (KB3-1; 15.4 µM) of 98% and a viability (KB3-1; 46.1 µM) of 78.7%.

COc1ccc2[nH]c([S+]([O-])Cc3ncc(C)c(OC)c3C)nc2c1 (configuration not stated) [Omeprazole] was tested, and the viability (Nalm-6; run: 1, 0.00078 µM) was 104%, the viability (Nalm-6; run: 1, 0.00234 µM) was 105% and the viability (Nalm-6; run: 1, 0.00702 µM) was 113%. For the same compound, the viability (Nalm-6; run: 1, 0.0211 µM) was 111%, the viability (Nalm-6; run: 1, 0.0632 µM) was 108% and the viability (Nalm-6; run: 1, 0.19 µM) was 104%. The viability (Nalm-6; run: 1, 0.569 µM) was 96.7%, the viability (Nalm-6; run: 1, 1.71 µM) was 93.7% and the viability (Nalm-6; run: 1, 5.12 µM) was 97.3%. The viability (Nalm-6; run: 1, 15.4 µM) was 92.5%, the viability (Nalm-6; run: 1, 46.1 µM) was 87.8% and the viability (Nalm-6; run: 2, 0.00078 µM) was 103%. It also gave a viability (Nalm-6; run: 2, 0.00234 µM) of 98.9%, a viability (Nalm-6; run: 2, 0.00702 µM) of 105% and a viability (Nalm-6; run: 2, 0.0211 µM) of 98.8%. For the same compound, the viability (Nalm-6; run: 2, 0.0632 µM) was 98%, the viability (Nalm-6; run: 2, 0.19 µM) was 100% and the viability (Nalm-6; run: 2, 0.569 µM) was 96.8%. For the same compound, the viability (Nalm-6; run: 2, 1.71 µM) was 86.9%, the viability (Nalm-6; run: 2, 5.12 µM) was 93.1% and the viability (Nalm-6; run: 2, 15.4 µM) was 96.4%. For the same compound, the viability (Nalm-6; run: 2, 46.1 µM) was 85%, the viability (KB3-1; 0.00078 µM) was 103% and the viability (KB3-1; 0.00234 µM) was 96.7%. It also gave a viability (KB3-1; 0.00702 µM) of 105%, a viability (KB3-1; 0.0211 µM) of 105% and a viability (KB3-1; 0.0632 µM) of 107%. For the same compound, the viability (KB3-1; 0.19 µM) was 96.9%, the viability (KB3-1; 0.569 µM) was 96.4% and the viability (KB3-1; 1.71 µM) was 98.9%. The viability (KB3-1; 5.12 µM) was 96.3%, the viability (KB3-1; 15.4 µM) was 98.3% and the viability (KB3-1; 46.1 µM) was 92.6%.
